Results from the antibiotic and cytotoxicity screens of Wong et al. (2023).
Some of the results follow.

Tested on: HepG2
Assay: cytotoxicity call (relative viability < 0.9)
Details: 10 µM

Row | Structure (SMILES) | cytotoxicity call
1 | O=C(C[C@H]1C[C@H]2c3cc(NS(=O)(=O)c4ccc(F)cc4)ccc3O[C@H]2[C@@H](CO)O1)N1CCOCC1 | inactive
2 | C[C@@H]1CN([C@@H](C)CO)C(=O)c2cc(C#C[C@@H](C)O)cnc2O[C@@H]1CN(C)C(=O)Nc1ccc(C(F)(F)F)cc1 | inactive
3 | C[C@H](CO)N1C[C@H](C)[C@@H](CN(C)C(=O)c2ccncc2)OCCCC[C@H](C)Oc2ccc(NS(=O)(=O)c3ccc(Cl)cc3)cc2C1=O | inactive
4 | C[C@H]1CN([C@@H](C)CO)C(=O)CCCn2cc(nn2)CO[C@@H]1CN(C)S(=O)(=O)c1ccc(Oc2ccccc2)nc1 | inactive
5 | Cc1ccc(C(=O)N2CCN(c3ccc(NC(=O)COc4c(C)cc(C)cc4Br)cc3)CC2)cc1 | inactive
6 | COc1ccc(-c2cnc3c(c2)C(=O)N([C@H](C)CO)C[C@H](C)[C@H](CN(C)C(=O)Cc2ccncc2)O3)cc1 | inactive
7 | COc1ccc(Cn2cc[nH]c(=O)c2=O)cc1 | inactive
8 | C[C@@H]1CN([C@@H](C)CO)C(=O)c2cc(NS(C)(=O)=O)ccc2O[C@@H](C)CCCCO[C@@H]1CN(C)S(=O)(=O)c1cccs1 | inactive
9 | C[C@@H]1CN([C@H](C)CO)C(=O)Cc2cc(NC(=O)Cn3cnnn3)ccc2O[C@H]1CN(C)Cc1ccc(Cl)c(Cl)c1 | inactive
10 | O=C(OC[C@H]1O[C@@H](OC(=O)c2cc(O)c(O)c(O)c2)[C@H](O)[C@@H](OC(=O)c2cc(O)c(O)c(O)c2)[C@@H]1O)c1cc(O)c(O)c(O)c1 | active
11 | C[C@@H]1CN([C@@H](C)CO)C(=O)c2cc(NC(=O)Cc3ccccc3)ccc2O[C@@H]1CN(C)Cc1ccc(-c2ccccc2)cc1 | active
12 | COC(=O)C1=C(C)NC(C)=C(C(=O)OCC(C)C)C1c1ccccc1[N+](=O)[O-] (stereo not given) | inactive
13 | Cc1noc(C)c1S(=O)(=O)N(C)C[C@H]1Oc2ccc(NS(=O)(=O)c3ccc(F)cc3)cc2CC(=O)N([C@H](C)CO)C[C@H]1C | inactive
14 | C[C@@H]1CN([C@@H](C)CO)C(=O)Cc2cc(NC(=O)Nc3ccc(F)cc3)ccc2O[C@@H]1CN(C)Cc1ccc(Cl)c(Cl)c1 | active
15 | CC(C)NC(=O)N(C)C[C@H]1Oc2ccc(NS(=O)(=O)c3ccc(Cl)cc3)cc2C(=O)N([C@@H](C)CO)C[C@H]1C | inactive
16 | C[C@@H]1CN([C@H](C)CO)S(=O)(=O)c2ccc(-c3cncnc3)cc2O[C@@H]1CN(C)C(=O)C1CCCCC1 | inactive
17 | NCCCCCCNC(=O)[C@@H]1C[C@@H]2C(=O)N[C@@H](CCCCN)C(=O)N2[C@@H]1c1cccc(OCCO)c1 | inactive
18 | CC(C)CNC(=O)[C@@]1(C)c2ccccc2C(=O)N(Cc2cc(C(F)(F)F)cc(C(F)(F)F)c2)[C@H]1c1ccc(CO)cc1 | inactive
19 | Cc1ccc(S(=O)(=O)Nc2ccc3c(c2)C(=O)N([C@@H](C)CO)C[C@@H](C)[C@@H](CN(C)C(=O)Cc2ccccc2)OCCCC[C@H](C)O3)cc1 | inactive
20 | OC[C@H]1O[C@H]2O[C@@H]3[C@@H](O)[C@H](O)[C@H](O[C@@H]4[C@@H](O)[C@H](O)[C@H](O[C@@H]5[C@@H](O)[C@H](O)[C@H](O[C@@H]6[C@@H](O)[C@H](O)[C@H](O[C@@H]7[C@@H](O)[C@H](O)[C@H](O[C@@H]8[C@@H](O)[C@H](O)[C@H](O[C@@H]1[C@@H](O)[C@@H]2O)O[C@@H]8CO)O[C@@H]7CO)O[C@@H]6CO)O[C@@H]5CO)O[C@@H]4CO)O[C@@H]3CO | inactive

Row | Structure (SMILES) | cytotoxicity call
21 | C[C@@H]1CN([C@@H](C)CO)C(=O)c2cccc(NS(C)(=O)=O)c2O[C@@H]1CN(C)Cc1ccc2c(c1)OCO2 | inactive
22 | COc1cccc(NC(=O)N[C@@H]2CC[C@H](CC(=O)N3CCOCC3)O[C@H]2CO)c1 | inactive
23 | COCCNC(=O)C[C@@H]1CC[C@H]2[C@H](COc3ccc(NC(=O)Nc4cccc(F)c4)cc3C(=O)N2C)O1 | inactive
24 | Cc1ccc(S(=O)(=O)Nc2ccc3c(c2)C(=O)N([C@@H](C)CO)C[C@@H](C)[C@@H](CN(C)S(=O)(=O)c2ccc(Cl)cc2)OCCCC[C@H](C)O3)cc1 | inactive
25 | C[C@@H]1CCCCO[C@H](CN(C)C(=O)Nc2ccccc2)[C@@H](C)CN([C@H](C)CO)C(=O)c2cc(NC(=O)Nc3ccc(F)cc3)ccc2O1 | inactive
26 | C[C@H](NC(=O)N(C)C[C@H]1OCc2ccccc2-c2ccccc2C(=O)N([C@H](C)CO)C[C@H]1C)c1ccccc1 | inactive
27 | O=C(O)CSCC(=O)NC1CCSC1=O (stereo not given) | inactive
28 | C[C@@H]1CCCCO[C@H](CN(C)C)[C@H](C)CN([C@H](C)CO)C(=O)c2cc(NC(=O)Nc3cccc4ccccc34)ccc2O1 | inactive
29 | CC(=O)SC1CC2=CC(=O)CCC2(C)C2CCC3(C)C(CCC34CCC(=O)O4)C12 (stereo not given) | inactive
30 | CN(Cc1ccccc1)C[C@H]1C[C@H](c2ccccc2)O[C@H](c2ccc(NC(=O)CCCCCCC(=O)O)cc2)O1 | inactive
31 | C[C@@H]1CCCCO[C@H](CN(C)Cc2ccc(Cl)c(Cl)c2)[C@@H](C)CN([C@@H](C)CO)C(=O)c2cc(NS(=O)(=O)c3ccc(F)cc3)ccc2O1 | inactive
32 | C[C@@H]1CN([C@@H](C)CO)C(=O)c2cc(NS(=O)(=O)c3cccs3)ccc2O[C@@H](C)CCCCO[C@H]1CN(C)CC1CCCCC1 | inactive
33 | Cc1c2oc3c(C)ccc(C(=O)N[C@@H]4C(=O)N[C@@H](C(C)C)C(=O)N5CCC[C@H]5C(=O)N(C)CC(=O)N(C)[C@@H](C(C)C)C(=O)O[C@@H]4C)c3nc-2c(C(=O)N[C@@H]2C(=O)N[C@@H](C(C)C)C(=O)N3CCC[C@H]3C(=O)N(C)CC(=O)N(C)[C@@H](C(C)C)C(=O)O[C@@H]2C)c(N)c1=O | active
34 | CCCCCCCCCCCCCCCc1cccc(OCC)c1C(=O)Nc1ccc(Cl)c(C(F)(F)F)c1 | inactive
35 | CCN(CC)CCOC(=O)c1ccc(N)cc1.Cl | inactive
36 | C[C@H](CO)N1C[C@H](C)[C@@H](CN(C)C)Oc2ccc(NS(C)(=O)=O)cc2CC1=O | inactive
37 | O=C(CN1CCOCC1)N[C@@H]1CC[C@@H](CCNC(=O)C2CCCCC2)O[C@H]1CO | inactive
38 | Cc1ccc(S(=O)(=O)Oc2ccc(/N=N/c3ccc(-c4ccc(/N=N/c5c(O)ccc6cc(S(=O)(=O)O)cc(S(=O)(=O)O)c56)c(C)c4)cc3C)cc2)cc1 | inactive
39 | C[C@H](CO)N1C[C@H](C)[C@H](CN(C)Cc2ccccc2)Oc2c(NC(=O)CCCCCC(=O)Nc3ccccc3N)cccc2C1=O | inactive
40 | CCc1nc2ccc(C(=O)Nc3ccc(OC)c(OC)c3)cn2c1N(CC)Cc1cccc(Br)c1 | inactive
